Source: publication PMC8048981, “Cys–Cys and Cys–Lys Stapling of Unprotected Peptides Enabled by Hypervalent Iodine Reagents” (Angewandte Chemie (International Ed. in English), 2021)
Peptide text beside a SMILES is read from it.

How the values were obtained:
cell = settings: not told; cited from earlier work
[1] = Circular dichroism measurements (helicity); assay type: physicochemical; settings: 0.1 mM peptide, 40% TFE/water; average of at least 2 values
Protocol: To study the changes induced in the peptide conformations, we obtained circular dichroism measurements of the helical linear peptides and the corresponding isolated stapled peptides (Table 2, entries 1–3, 7–10, 16–18, 21–23).
Figure 2 Circular Dichroism (180–240 nm) spectra of linear (represented by a black line) and stapled peptides. Measured using 0.1 mM 40 % TFE/Water solutions. See Figure S3–6 in Supporting Information for the data of other stapled peptides.
16. Circular Dichroism Measurements
General Procedure for the measurement of CD spectra: The lyophilized solid linear and staple peptides were dissolved in water (bubbled with nitrogen for 30 minutes) to afford a 1 mM solution.
The 1 mM stock solution was diluted with water and TFE to afford 0.1 mM solutions with 0, 5, 10, 20 and/or 40% TFE. The ellipticity was measured from 260 nM to 180 nM. The data described is the average of at least 2 values. The mean peptide ellipticity [θ] was calculated using equation (1) and plotted against wavelength. […]
θ: ellipticity [mdeg], C: peptide molar concentration [M], Np: number of peptide units, l: cell path length [cm].10 The linear and staple peptides were compared at the same % of TFE. When possible, the comparison was made at 40% TFE. When HT went over 700 V the data was not considered accurate. For 17a only measurements at 5% TFE provided reliable data over the whole range of wavelengths. For 27a, no change was observed between 5% and 10 % TFA, thus for comparability 26 and 27b are also reported at 5% TFA.
Table S11: Values of [θ] at 208 and 222 nm at 40% TFE:
10 Shepherd, N. E.; Hoang, H. N.; Abbenante, G.; Fairlie, D. P. J. Am. Chem. Soc. 2005, 127, 2974-2983.

[2] = sequence introduced by Verdine and co-workers; ref [22]; cited from earlier work
Excerpt: With the reagents in hand, we moved to apply them on a peptide model (Table 1).

[3] = biological target: T1, human MDM2 fused to GST (hMDM2-GST) (Homo sapiens, UniProt Q00987); experiment: Direct fluorescence polarization binding assay
T1 sequence (Q00987 whole entry, the tested form may be a part): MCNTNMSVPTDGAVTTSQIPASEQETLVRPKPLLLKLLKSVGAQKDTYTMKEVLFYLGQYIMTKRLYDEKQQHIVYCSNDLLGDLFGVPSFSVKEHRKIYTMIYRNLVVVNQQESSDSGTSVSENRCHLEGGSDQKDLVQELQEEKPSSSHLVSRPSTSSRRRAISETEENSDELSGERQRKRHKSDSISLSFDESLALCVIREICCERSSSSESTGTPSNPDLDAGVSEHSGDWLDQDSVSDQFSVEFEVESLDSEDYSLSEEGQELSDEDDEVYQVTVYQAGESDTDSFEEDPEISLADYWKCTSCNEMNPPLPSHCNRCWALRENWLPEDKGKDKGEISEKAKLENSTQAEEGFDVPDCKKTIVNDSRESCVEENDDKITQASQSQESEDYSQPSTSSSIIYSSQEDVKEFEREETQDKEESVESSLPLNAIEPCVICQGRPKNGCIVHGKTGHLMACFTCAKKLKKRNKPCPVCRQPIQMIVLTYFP

[4] = biological target: T1, human MDM2 fused to GST (hMDM2-GST); experiment: Competition fluorescence polarization assay (displacement of fluorescein-labeled reporter peptide); assay type: binding; settings: reporter peptide 50 nM, hMDM2-GST 1 M [sic]; peptide 50 M [sic] to 49 nM; phosphate buffer pH 7.4, TCEP, 0.01% Tween-20; 30 min room temperature; average of two independent measurements

Compound	cell permeability vs wild type helical binding domain of p53 (cell)	mean peptide ellipticity [θ] at 208 nm, 40% TFE [1]	mean peptide ellipticity [θ] at 222 nm, 40% TFE [1]	helicity vs wild type helical binding domain of p53 [2]	binding affinity to MDM2 in words ([3]; FP, fluorescein-labelled stapled vs linear peptide)	displacement of the fluorescent probe from MDM2 [4]	fold higher affinity to MDM2 than the linear peptide ([3]; stapled vs linear fluorescein-labelled peptide, from K d values)
Ac-QSQQTFCNLWRLLCQN-NH2 (cysteine pairing not given here) [compound 20, p53-derived linear peptide Ac‐…‐NH2]	better cell permeability	-19.5064 10-3 deg cm2 dmol-1	-17.0082 10-3 deg cm2 dmol-1	better cell permeability and helicity	–	–	–
p-Ac-QSQQTF(CNLWRLLK)QN-NH2 (sidechain bridge or staple) [29a, Cys-Lys stapled peptide from 28 and para reagent 9a]	–	-19.7351 10-3 deg cm2 dmol-1	-18.6972 10-3 deg cm2 dmol-1	–	enhanced helicity and binding affinity to the MDM2 protein	efficiently displaced the probe at concentrations close to that of MDM2	–
CC(C)C[C@@H]1NC(=O)[C@H](CC(C)C)NC(=O)[C@H](CCCNC(=N)N)NC(=O)[C@H](Cc2c[nH]c3ccccc23)NC(=O)[C@H](CC(C)C)NC(=O)[C@H](CC(N)=O)NC(=O)[C@@H](NC(=O)[C@H](Cc2ccccc2)NC(=O)[C@@H](NC(=O)[C@H](CCC(N)=O)NC(=O)[C@H](CCC(N)=O)NC(=O)[C@H](CO)NC(=O)[C@H](CCC(N)=O)NC(=O)c2ccc3c(c2)C(=O)OC32c3ccc(O)cc3Oc3cc(O)ccc32)[C@@H](C)O)CSC#Cc2ccc(cc2)C(=O)NCCCC[C@@H](C(=O)N[C@@H](CCC(N)=O)C(=O)N[C@@H](CC(N)=O)C(N)=O)NC1=O [29 a′] (HELM PEPTIDE1{[O=C1OC2(c3ccc(O)cc3Oc3cc(O)ccc32)c2ccc(C(=O)[*:2])cc21].Q.S.Q.Q.T.F.C.N.L.W.R.L.L.K.Q.N.[am]}|CHEM1{[O=C(c1ccc(C#C[*:1])cc1)[*:2]]}$PEPTIDE1,CHEM1,8:R3-1:R1|PEPTIDE1,CHEM1,15:R3-1:R2$$$V2.0)	–	–	–	–	–	–	12 fold
